Source: PubChem BioAssay AID1645887 (National Center for Advancing Translational Sciences (NCATS), 2021)
Where “and” joins values, the source holds several entries; their conditions need not be identical. Equal entries are not always repeated. Among all 16,000 compounds or so, about 40 (0.2%) were called active. Not shown: some 1% with an inconclusive outcome. Calls come from the whole dose curve; as a rule, active = well fitted activation curve with a large enough effect; inconclusive = small, poorly fitted or top-dose-only effect, or another doubt; inactive = no such curve, though single readings can be large or run the other way. The list shows a part of the results.

biological target: Rap guanine nucleotide exchange factor 4 (Homo sapiens) (UniProt Q8WZA2); test: Validation qHTS for agonist of cAMP-regulated guanine nucleotide exchange factor 4 (EPAC2); conditions: EPAC2 Rap1B BODIPY-GDP exchange, fluorescence; activation: active compounds read high;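 note: exchange makes BODIPY-GDP fluorescence drop when released from Rap1B; series mostly up to about 150 µM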
Procedure, shortened: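 Fluorescent exchange assay: 100 nM EPAC2 with 250 nM RAP1B-BODIPY-GDP and 50 uM GDP; compound added, 5 min at room temperature, then read (ex 480/em 540 nm) every 5 min for 30 min. Normalized to 6.5 mM cAMP agonist control.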
% is set by controls: 0 for no effect and ±100 for the full control effect.

Sequence of UniProt Q8WZA2 (Q8WZA2 whole entry, looked up): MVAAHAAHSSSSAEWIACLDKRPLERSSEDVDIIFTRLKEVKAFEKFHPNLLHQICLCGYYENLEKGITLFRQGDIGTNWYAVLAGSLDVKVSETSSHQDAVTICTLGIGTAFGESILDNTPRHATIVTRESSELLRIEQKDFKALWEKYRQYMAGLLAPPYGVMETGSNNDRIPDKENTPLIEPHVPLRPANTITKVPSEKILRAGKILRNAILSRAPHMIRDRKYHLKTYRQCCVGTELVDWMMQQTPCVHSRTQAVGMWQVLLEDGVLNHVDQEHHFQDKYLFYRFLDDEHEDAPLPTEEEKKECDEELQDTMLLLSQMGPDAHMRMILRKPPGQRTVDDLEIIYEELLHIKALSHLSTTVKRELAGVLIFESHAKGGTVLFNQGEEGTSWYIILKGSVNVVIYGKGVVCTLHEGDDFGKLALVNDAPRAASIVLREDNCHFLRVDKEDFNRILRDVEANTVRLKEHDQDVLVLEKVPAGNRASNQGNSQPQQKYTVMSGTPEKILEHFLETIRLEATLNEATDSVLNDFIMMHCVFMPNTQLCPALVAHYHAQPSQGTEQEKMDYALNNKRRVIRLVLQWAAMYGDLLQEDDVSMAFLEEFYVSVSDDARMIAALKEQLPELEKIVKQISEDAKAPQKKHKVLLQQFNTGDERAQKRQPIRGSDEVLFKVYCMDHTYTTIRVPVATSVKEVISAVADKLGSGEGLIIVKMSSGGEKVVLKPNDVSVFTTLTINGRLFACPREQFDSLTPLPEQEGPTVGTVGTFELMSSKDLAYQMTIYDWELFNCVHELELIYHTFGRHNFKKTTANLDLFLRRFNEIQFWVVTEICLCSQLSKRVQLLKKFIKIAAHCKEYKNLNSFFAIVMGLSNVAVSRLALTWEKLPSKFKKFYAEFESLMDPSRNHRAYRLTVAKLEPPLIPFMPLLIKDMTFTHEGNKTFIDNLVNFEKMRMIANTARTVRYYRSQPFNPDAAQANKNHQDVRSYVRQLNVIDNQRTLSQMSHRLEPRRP

activation, inactive:
O=C1CCN(Cc2ccccc2)CCN1[C@H](COc1ccccc1)c1ccccc1 -23.4%, COc1ccccc1CN1CCC2(CCC(CNC(=O)c3ccccc3N(C)C)O2)CC1 (centres undefined) -11.2%, COc1cccc(Cn2c(=O)c(-c3cccs3)nc3cnc(N(C)C)nc32)c1 -8.67%, Cc1ccc(C(=O)N(Cc2cc3ccc(F)cc3nc2N2CCC(O)CC2)CC2CCCO2)cc1 (centres undefined) -2.31%, COc1ncc2nc(CCc3ccccc3)c(=O)n(Cc3ccc(F)cc3)c2n1 -8.84%, COc1ccc(NC(=O)N2CC3(CCN(C(=O)c4cccc(F)c4)CC3)C2)cc1 -14.9%, FC(F)(F)c1ccccc1-c1nc(NCCN2CCOCC2)c2ccccc2n1 -5.46%, COCC(=O)N1CCC2(CCCN(C(=O)Nc3ccc(OC)cc3)C2)CC1 -0.504%, CC(=O)N(CC(O)CO)c1c(I)c(C(=O)NCC(O)CO)c(I)c(C(=O)NCC(O)CO)c1I (centres undefined) -28.7%, COc1cc(=O)n2c(c1C(=O)N(C)Cc1ccsc1)CCN(Cc1c(C)nn(C)c1Cl)CC2 3.96%, COc1ccccc1CN1CCC2(CC1)CCN(C(=O)c1c(C)noc1C)CC2 2.87%, O=P(O)(O)OC[C@H]1O[C@](O)(COP(=O)(O)O)[C@@H](O)[C@@H]1O -21.3%, NC[C@H](O)c1ccc(O)c(O)c1 10.6% and -16.8% and -7.04%, CN(C)C(=O)c1cc(CNCc2ccc(C(F)(F)F)cc2)cc(NC(=O)c2ccccn2)c1 -9.28%, CNc1nc(-c2c(C)noc2C)nc2ccccc12 -15.6%, CN(C)c1ncnc2ccc(-c3ccccc3C(F)(F)F)cc12 -24.2%, COc1ccccc1C1CN(Cc2ccc(Sc3nncn3C)o2)Cc2ccccc2O1 (centres undefined) -10.1%, COc1cc2c(c(OC)c1OC)-c1ccc(OC)c(=O)cc1[C@H](NC(C)=O)CC2 3.29%, CC(=O)O[C@@]1(C(C)=O)CCC2C3C=C(Cl)C4=CC(=O)C5CC5[C@@]4(C)C3CC[C@]21C (some centres undefined) -8.29%, COc1cccc(-c2nccc(N(C)Cc3ccco3)n2)c1 -1.37%, CC(=O)Nc1c(I)c(C(=O)N[C@H]2C(O)O[C@H](CO)[C@@H](O)[C@@H]2O)c(I)c(N(C)C(C)=O)c1I (some centres undefined) 4.11%, COc1cccc(Cn2c(=O)c(-c3cccs3)nc3cnc(OCc4ccccc4)nc32)c1 2.14%, COCCn1c(=O)c(-c2cccs2)nc2cncnc21 3.93%, COc1ccccc1-c1nccc(NCc2cnc(C)cn2)n1 -18.7%, N#CC[C@H](Cc1ccccc1)N1CCN(Cc2ccccc2)CCC1=O -22.6%, COc1ccc(-c2coc3c(OC)c(OC)cc(OC)c3c2=O)cc1 -31.2%, CCCCCCOc1ccccc1C(N)=O -18.4%, COC(=O)C1CCCCN1Cc1ccc2c(c1)CN(C(=O)c1cc(C)nc3cc(F)ccc13)CCO2 (centres undefined) -8.36%, C[C@](Cc1ccc(O)c(O)c1)(NN)C(=O)O -12.8%, c1ccc2c(c1)CC(N1CCN(c3cccc4c3OCCO4)CC1)C2 -32.6%, CS(=O)(=O)N1CCC2(CC1)CN(C(=O)Nc1cccc(C#N)c1)C2 -10.8%, COc1ccc(CNc2nc(-c3cccc(C#N)c3)nc3ccccc23)c(OC)c1 17.8%, Cc1sc2ccccc2[n+]1Cc1ccccc1 -28%, CCOC(=O)CNS(=O)(=O)Cc1ccccc1 -1.01%, COc1ccc(Oc2ncc3nc(C)c(=O)n(CCC#N)c3n2)cc1 -5.95%, O=C(c1ccncc1)N1CCC2(CCCN(c3ccc(-c4ccccc4)cc3)C2)CC1 -3.07%, CC1=C(C(=O)OCc2ccc3nsnc3c2)N2C(=O)[C@@H](NC(=O)OCc3ccc4nsnc4c3)[C@H]2SC1 -25.1%, COc1ccc(CN2CCOc3c(cc(-c4ccc(OC)nn4)cc3OC)C2)c(O)c1 -11.8%, CC(C)CN1CC2(CCN(C(=O)c3cnccn3)CC2)C1 -2.22%, O=C(O)C1=C(CSc2nnnn2CS(=O)(=O)O)CS[C@@H]2[C@H](NC(=O)[C@H](O)c3ccccc3)C(=O)N12 -4.27%, N#CCCn1c(=O)cnc2cnc(OCc3ccccc3)nc21 1.52%, Nc1ccn(C2OC(CO)C(O)C2O)c(=O)n1 (centres undefined) 5.3% and -9.82%, Cc1ccccc1-c1cncnc1NCc1cccnc1 -5.18%, COc1ccc(OC)c2c(/C=C/c3c[nH]c4ccccc34)ccnc12 -30.1%, Cc1ccc(C(=O)NCCc2nnc3n2CCN(Cc2ccc4ccccc4c2)CC3)c(C)c1 1.28%, COc1cc(N)c(NC(=O)/C=C/c2nc3cc(OC)c(OC)cc3[nH]2)cc1OC -22.6%, C=C[C@]1(C)C[C@@H](OC(=O)CSC(C)(C)CNC(=O)[C@H](N)C(C)C)[C@]2(C)[C@H](C)CC[C@]3(CCC(=O)[C@H]32)[C@@H](C)[C@@H]1O 6.92%, CN(N=O)C(=O)N[C@H]1C(O)C(O)C(CO)O[C@@H]1O (some centres undefined) -9.5%, COC(=O)N1CCC2(CCN(Cc3cc(C(F)(F)F)cc(C(F)(F)F)c3)CC2)CC1 -29.3%, Cc1nn(-c2ccc(F)cc2)c(C)c1CNC(=O)c1ccc(-n2cc(NC(=O)c3ccoc3)cn2)cc1 12.1%, COc1cccc(CN2CCC(c3nnc(SCC4CCCO4)n3C)CC2)c1O (centres undefined) -17.3%, CCc1cc(C(=O)NCC2Cc3cccc(-c4ccc(C(=O)OC)cn4)c3O2)no1 (centres undefined) -14.7%, CCC1CN(CCNC(=O)c2cc3ccccc3oc2=O)Cc2cc(OC)ccc2O1 (centres undefined) 1.42%, CC1CCC2[C@](C)(CO)C(O)CC[C@]2(C)C12CCC(CO)(CCO)O2 (some centres undefined) -9.66%
